Among the data in patent publication US8129380B2, “Phthalazinone derivatives” (AstraZeneca AB, priority 2008, dated 2012) are IC50 values, retold here.

This experiment has as its target Mammalian PARP, isolated from Hela cell nuclear extract (Homo sapiens, UniProt P09874). Nature of the experiment: PARP inhibitory action (FlashPlate 3H-NAD assay). The class given is biochemical. Conditions: 30° C., NAD 5 μM. The procedure: In order to assess the inhibitory action of the compounds, the following assay was used to determine IC50 values.
Sequence of UniProt P09874 (P09874 whole entry): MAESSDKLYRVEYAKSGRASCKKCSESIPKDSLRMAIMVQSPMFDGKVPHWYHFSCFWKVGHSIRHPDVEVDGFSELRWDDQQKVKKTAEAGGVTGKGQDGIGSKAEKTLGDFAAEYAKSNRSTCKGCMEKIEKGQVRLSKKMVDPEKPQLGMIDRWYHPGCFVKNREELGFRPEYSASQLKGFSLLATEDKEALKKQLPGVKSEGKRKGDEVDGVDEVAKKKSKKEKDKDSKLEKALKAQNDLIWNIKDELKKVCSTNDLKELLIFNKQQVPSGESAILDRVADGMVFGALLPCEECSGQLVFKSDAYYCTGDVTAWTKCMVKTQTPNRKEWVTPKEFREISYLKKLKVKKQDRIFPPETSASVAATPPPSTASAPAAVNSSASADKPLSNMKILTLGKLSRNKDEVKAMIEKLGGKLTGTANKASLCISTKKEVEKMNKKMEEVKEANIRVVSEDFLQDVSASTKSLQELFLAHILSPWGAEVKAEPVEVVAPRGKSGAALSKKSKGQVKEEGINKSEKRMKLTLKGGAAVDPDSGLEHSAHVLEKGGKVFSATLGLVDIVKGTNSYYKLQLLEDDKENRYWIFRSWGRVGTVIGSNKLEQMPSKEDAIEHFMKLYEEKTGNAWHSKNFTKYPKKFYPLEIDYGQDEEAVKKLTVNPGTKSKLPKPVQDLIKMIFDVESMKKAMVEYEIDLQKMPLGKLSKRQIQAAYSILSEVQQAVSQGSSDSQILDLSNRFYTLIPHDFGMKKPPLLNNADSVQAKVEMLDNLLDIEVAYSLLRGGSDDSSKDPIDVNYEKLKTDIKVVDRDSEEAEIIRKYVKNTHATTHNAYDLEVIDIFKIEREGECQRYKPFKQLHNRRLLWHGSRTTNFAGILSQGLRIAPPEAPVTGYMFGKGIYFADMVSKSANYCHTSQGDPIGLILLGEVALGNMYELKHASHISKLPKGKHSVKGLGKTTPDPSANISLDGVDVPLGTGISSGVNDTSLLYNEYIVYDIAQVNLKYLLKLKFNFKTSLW
The total assay volume per well was 40 μl.
After 10 minutes incubation at 30° C. the reactions were initiated by the addition of a 10 μl reaction mixture, containing NAD (5 μM), ^3H-NAD and 30 mer double stranded DNA-oligos. Designated positive and negative reaction wells were done in combination with compound wells (unknowns) in order to calculate % enzyme activities. The plates were then shaken for 2 minutes and incubated at 30° C. for 45 minutes.
Following the incubation, the reactions were quenched by the addition of 50 μl 30% acetic acid to each well. The plates were then shaken for 1 hour at room temperature.
The plates were transferred to a TopCount NXT (TRADE MARK) (Packard, UK) for scintillation counting. Values recorded are counts per minute (cpm) following a 30 second counting of each well.
The % enzyme activity for each compound is then calculated using the following equation: […]
IC50 values (the concentration at which 50% of the enzyme activity is inhibited) were calculated, which are determined over a range of different concentrations, normally from 10 μM down to 0.001 μM. Such IC50 values are used as comparative values to identify increased compound potencies.

As usually defined, the IC50 is the midpoint of a concentration-inhibition curve. In the case of `N#Cc1ccc(OC2CCN(C(=O)c3cc(Cc4n[nH]c(=O)c5ccccc45)ccc3F)CC2)nc1` [Compound 26c], the IC50 worked out at 3 nM.

On to `O=C(c1cc(Cc2n[nH]c(=O)c3ccccc23)ccc1F)N1CCC(Oc2cnccn2)CC1` [Compound 26d], for which the IC50 is 6 nM.

In the case of `O=C(c1cc(Cc2n[nH]c(=O)c3ccccc23)ccc1F)N1CCC(Oc2ncccn2)CC1` [Compound 26e], the concentration for half-maximal inhibition (IC50) turned out to be 6 nM.

Take `N#Cc1ccnc(OC2CCN(C(=O)c3cc(Cc4n[nH]c(=O)c5ccccc45)ccc3F)CC2)c1` [Compound 26f]: the 50% inhibitory concentration (IC50) amounted to 5 nM.

For `NC(=O)c1ccnc(OC2CCN(C(=O)c3cc(Cc4n[nH]c(=O)c5ccccc45)ccc3F)CC2)c1` [Compound 26g], the IC50 stood at 7 nM.

As for `Cc1nccnc1OC1CCN(C(=O)c2cc(Cc3n[nH]c(=O)c4ccccc34)ccc2F)CC1` [Compound 26h], the IC50 came to 3 nM.

Turning to `Cc1cnc(OC2CCN(C(=O)c3cc(Cc4n[nH]c(=O)c5ccccc45)ccc3F)CC2)c(C)n1` [Compound 26i], the concentration for half-maximal inhibition (IC50) was found to be 2 nM.

With `Cc1cnc(C)c(OC2CCN(C(=O)c3cc(Cc4n[nH]c(=O)c5ccccc45)ccc3F)CC2)n1` [Compound 26j], the IC50 amounted to 5 nM.

On to `COc1ccnc(OC2CCN(C(=O)c3cc(Cc4n[nH]c(=O)c5ccccc45)ccc3F)CC2)c1` [Compound 26k], for which the concentration for half-maximal inhibition (IC50) is 1 nM.

With `N#Cc1nccnc1OC1CCN(C(=O)c2cc(Cc3n[nH]c(=O)c4ccccc34)ccc2F)CC1` [Compound 26l], the concentration for half-maximal inhibition (IC50) amounted to 5 nM.

Take `O=C(c1cc(Cc2n[nH]c(=O)c3ccccc23)ccc1F)N1CCC(Oc2ccc(Cl)nc2)CC1` [Compound 26m]: the 50% inhibitory concentration (IC50) worked out at 7 nM.

Regarding `O=C(c1cc(Cc2n[nH]c(=O)c3ccccc23)ccc1F)N1CCC(OC(CF)CF)CC1` [Compound 29, 4-(3-(4-(1,3-difluoropropan-2-yloxy)piperidine-1-carbonyl)-4-fluorobenzyl)phthalazin-1(2H)-one], the IC50 was 3 nM.

Turning to `COC1CCN(C(=O)c2cc(Cc3n[nH]c(=O)c4c(N)cccc34)ccc2F)CC1` [Compound 35a, 8-amino-4-(4-fluoro-3-(4-methoxypiperidine-1-carbonyl)benzyl)phthalazin-1(2H)-one], the half-inhibitory concentration (IC50) was 479 nM.

Consider `O=C(c1cc(Cc2n[nH]c(=O)c3ccccc23)ccc1F)N1CCC(OC2CCCC2)CC1` [Compound 36, 4-(3-(4-(cyclopentyloxy)piperidine-1-carbonyl)-4-fluorobenzyl)phthalazin-1(2H)-one], for which the IC50 turned out to be 4 nM.

For `O=C(c1cccc(Cc2n[nH]c(=O)c3ccccc23)c1)N1CCC(OC2CCCC2)CC1` [Compound 37, 4-(3-(4-(cyclopentyloxy)piperidine-1-carbonyl)benzyl)phthalazin-1(2H)-one], the concentration for half-maximal inhibition (IC50) is 5 nM.

For `Cc1cccc(OC2CCN(C(=O)c3cc(Cc4n[nH]c(=O)c5ccccc45)ccc3F)CC2)n1` [Compound 39, 4-(4-fluoro-3-(4-(6-methylpyridin-2-yloxy)piperidine-1-carbonyl)benzyl)phthalazin-1(2H)-one], the IC50 stood at 5 nM.

Consider `O=C(c1cc(Cc2n[nH]c(=O)c3ccccc23)ccn1)N1CCC(OC2CCCC2)CC1` [Compound 40, 4-((2-(4-(cyclopentyloxy)piperidine-1-carbonyl)pyridin-4-yl)methyl)phthalazin-1(2H)-one], for which the half-maximal inhibitory concentration (IC50) turned out to be 6 nM.

For the compound `COC1CCN(C(=O)c2cc(Cc3n[nH]c(=O)c4cccc(N)c34)ccc2F)CC1` [Compound 46, 5-amino-4-(4-fluoro-3-(4-methoxypiperidine-1-carbonyl)benzyl)phthalazin-1(2H)-one], the IC50 is 11 nM.

As for `CCOC1CCN(C(=O)c2cccc(Cc3n[nH]c(=O)c4ccccc34)c2)CC1` [Compound 47a, 4-(3-(4-ethoxypiperidine-1-carbonyl)benzyl)phthalazin-1(2H)-one], the concentration for half-maximal inhibition (IC50) amounted to 10 nM.

For the compound `COC1CCN(C(=O)c2cccc(Cc3n[nH]c(=O)c4ccccc34)c2)CC1` [Compound 47b, 4-(3-(4-methoxypiperidine-1-carbonyl)benzyl)phthalazin-1(2H)-one], the concentration for half-maximal inhibition (IC50) was 30 nM.

`COC1CCN(C(=O)c2cccc(Cc3n[nH]c(=O)c4c(C)[nH]c(C)c34)c2)CC1` [Compound 52a, 4-(3-(4-methoxypiperidine-1-carbonyl)benzyl)-5,7-dimethyl-2,6-dihydro-1H-pyrrolo[3,4-d]pyridazin-1-one]: the IC50 turned out to be 152 nM.

Regarding `CCOC1CCN(C(=O)c2cccc(Cc3n[nH]c(=O)c4c(C)[nH]c(C)c34)c2)CC1` [Compound 52b, 4-(3-(4-ethoxypiperidine-1-carbonyl)benzyl)-5,7-dimethyl-2,6-dihydro-1H-pyrrolo[3,4-d]pyridazin-1-one], the 50% inhibitory concentration (IC50) was 55 nM.

As for `CCOC1CCN(C(=O)c2cc(Cc3n[nH]c(=O)c4c(C)[nH]c(C)c34)ccc2F)CC1` [Compound 54, 4-(3-(4-ethoxypiperidine-1-carbonyl)-4-fluorobenzyl)-5,7-dimethyl-2,6-dihydro-1H-pyrrolo[3,4-d]pyridazin-1-one], the IC50 amounted to 18 nM.

In the case of `CCOC1CCN(C(=O)c2cc(Cc3n[nH]c(=O)c4c(C)n(C)c(C)c34)ccc2F)CC1` [Compound 56, 4-(3-(4-ethoxypiperidine-1-carbonyl)-4-fluorobenzyl)-5,6,7-trimethyl-2,6-dihydro-1H-pyrrolo[3,4-d]pyridazin-1-one], the IC50 was determined as 14 nM.

For `COC1CCN(C(=O)c2cc(Cc3n[nH]c(=O)c4c(C)[nH]c(C)c34)ccc2F)CC1` [Compound 58, 4-(4-fluoro-3-(4-methoxypiperidine-1-carbonyl)benzyl)-5,7-dimethyl-2,6-dihydro-1H-pyrrolo[3,4-d]pyridazin-1-one], the half-maximal inhibitory concentration (IC50) was found to be 19 nM.

In the case of `COC1CCN(C(=O)c2cc(Cc3n[nH]c(=O)c4c(C)n(C)c(C)c34)ccc2F)CC1` [Compound 60, 4-(4-fluoro-3-(4-methoxypiperidine-1-carbonyl)benzyl)-5,6,7-trimethyl-2,6-dihydro-1H-pyrrolo[3,4-d]pyridazin-1-one], the IC50 came out at 26 nM.

On to `COC1CCN(C(=O)c2cc(Cc3n[nH]c(=O)c4c[nH]c(C)c34)ccc2F)CC1` [Compound 63, 4-(4-fluoro-3-(4-methoxypiperidine-1-carbonyl)benzyl)-5-methyl-2,6-dihydro-1H-pyrrolo[3,4-d]pyridazin-1-one], for which the IC50 was determined as 69 nM.

Regarding `COC1CCN(C(=O)c2cc(Cc3n[nH]c(=O)c4cc(Cl)c(Cl)cc34)ccc2F)CC1` [Compound 65, 6,7-dichloro-4-(4-fluoro-3-(4-methoxypiperidine-1-carbonyl)benzyl)phthalazin-1(2H)-one], the IC50 amounted to 40 nM.

As for `COC1CCN(C(=O)c2cc(Cc3n[nH]c(=O)c4ccc(Cl)cc34)ccc2F)CC1` [Compound 68, 6-chloro-4-(4-fluoro-3-(4-methoxypiperidine-1-carbonyl)benzyl)phthalazin-1(2H)-one], the IC50 was 24 nM.

Regarding `COC1CCN(C(=O)c2cc(Cc3n[nH]c(=O)c4cc(Cl)ccc34)ccc2F)CC1` [Compound 69, 7-chloro-4-(4-fluoro-3-(4-methoxypiperidine-1-carbonyl)benzyl)phthalazin-1(2H)-one], the IC50 was 8 nM.

As to `CC(C)(C)OC1CCN(C(=O)c2cc(Cc3n[nH]c(=O)c4ccccc34)ccc2F)CC1` [Compound 70, 4-(3-(4-tert-butoxypiperidine-1-carbonyl)-4-fluorobenzyl)phthalazin-1(2H)-one], the IC50 came to 6 nM.

`CC(C)(C)OC1CCN(C(=O)c2cccc(Cc3n[nH]c(=O)c4ccccc34)c2)CC1` [Compound 71, 4-[[3-[4-[(2-methylpropan-2-yl)oxy]piperidine-1-carbonyl]phenyl]methyl]-2H-phthalazin-1-one]: the IC50 was 9 nM.

As for `Cc1cccnc1OC1CCN(C(=O)c2cc(Cc3n[nH]c(=O)c4ccccc34)ccc2F)CC1` [Compound 72a, 4-[[4-fluoro-3-[4-(3-methylpyridin-2-yl)oxypiperidine-1-carbonyl]phenyl]methyl]-2H-phthalazin-1-one], the concentration for half-maximal inhibition (IC50) worked out at 664 nM.

Regarding `O=C(c1cc(Cc2n[nH]c(=O)c3ccccc23)ccc1F)N1CCC(Oc2cccc(F)n2)CC1` [Compound 72b], the 50% inhibitory concentration (IC50) stood at 677 nM.

For the compound `Cc1ccc(OC2CCN(C(=O)c3cc(Cc4n[nH]c(=O)c5ccccc45)ccc3F)CC2)nc1` [Compound 72c], the 50% inhibitory concentration (IC50) is 1740 nM.

As for `Cc1ccnc(OC2CCN(C(=O)c3cc(Cc4n[nH]c(=O)c5ccccc45)ccc3F)CC2)c1` [Compound 72d], the half-inhibitory concentration (IC50) was determined as 1030 nM.

As to `CC(C)(C)OC1CCN(C(=O)c2cc(Cc3n[nH]c(=O)c4ccccc34)ccn2)CC1` [Compound 73, 4-((2-(4-tert-butoxypiperidine-1-carbonyl)pyridin-4-yl)methyl)phthalazin-1(2H)-one], the IC50 was found to be 5 nM.

As for `CC1(O)CCN(C(=O)c2cc(Cc3n[nH]c(=O)c4ccccc34)ccc2F)CC1` [Compound 74, 4-(4-fluoro-3-(4-hydroxy-4-methylpiperidine-1-carbonyl)benzyl)phthalazin-1(2H)-one], the 50% inhibitory concentration (IC50) is 8 nM.

Take `O=C(COC1CCN(C(=O)c2cc(Cc3n[nH]c(=O)c4ccccc34)ccc2F)CC1)N1CCOCC1` [Compound 77, 4-(4-fluoro-3-(4-(2-morpholino-2-oxoethoxy)piperidine-1-carbonyl)benzyl)phthalazin-1(2H)-one]: the IC50 was 8 nM.

Turning to `O=C(c1cc(Cc2n[nH]c(=O)c3ccccc23)ccc1F)N1CCC(OCCN2CCOCC2)CC1` [Compound 80, 4-(4-fluoro-3-(4-(2-morpholinoethoxy)piperidine-1-carbonyl)benzyl)phthalazin-1(2H)-one], the half-maximal inhibitory concentration (IC50) came to 11 nM.
